Source: ChEMBL document CHEMBL4888484, “Replenishing the malaria drug discovery pipeline: Screening and hit evaluation of the MMV Hit Generation Library 1 (HGL1) against asexual blood stage Plasmodium falciparum ,using a nano luciferase reporter read-out” (2022)
The whole screen tested about 150,000 compounds, of which about 540 (0.36%) showed an effect of 50% or more. Some of the results follow.

The compounds below were run on Plasmodium falciparum (assay: Primary screen in NF54 nanoGlo assay, in single point, at 2uM, 72h; a lower Z score goes with more inhibition). Details: timepoint 72 hour.
Assay type: functional, Erythrocyte

SMILES	% Inhibition [%]	Z score
Cc1cc(CNCc2c(C)noc2C)no1	-1	0.13
CC(C)(C)c1nnc2ccc(N[C@@H](CO)C3CCCC3)nn12	-10	1.89
Cc1nc(CC(C)C)c(NC(=O)NCCN2CCCOCC2)s1	-8	1.29
CO[C@H]1CCN(C(=O)C(=O)N2CCCCC2)C1	-11	2.06
Cn1cncc1C(=O)N[C@@](C)(CO)c1cccc(C(F)(F)F)c1	4	-0.48
Cc1ccc(-c2ncc(C#N)c(=O)n2CC(=O)N(C)c2ccccc2)cc1	4	-0.54
O=C(O)CN(C(=O)CNC(=O)c1ccc(C(F)(F)F)cc1)C1CCCCC1	-7	1.07
COc1cc(OC)c2c(c1)N(C(=O)[C@@H]1CCCS1(=O)=O)CCC2	6	-0.58
CN(CCNC(=O)c1nnc(C(=O)Nc2ccc(F)cc2)s1)Cc1ccccc1	-12	1.13
Cn1c(N2CCN(C(=O)c3ccccc3)CC2)cc(=O)n(C)c1=O	-5	0.72
Cc1ccc(CCCNCc2sncc2Br)cn1	-7	1.13
CC1(C)OC(=O)c2c1ccnc2NCCC(=O)N1CCCCCC1	-7	0.88
Fc1cccc(-c2ccc(CNc3nnc([C@@H]4CCCO4)o3)o2)c1F	-3	0.32
Nc1ccc(Cl)cc1OCC(F)F	-5	0.52
CC1(c2ccccc2)COC2(OC1)C(=O)N(CN1CCCCC1)c1ccccc12 (stereo not drawn)	-4	0.48
c1cn(Cc2ccsc2)c(-c2ccc3nonc3c2)n1	-8	1.53
CC(=O)N1CCCN(C(=O)c2cc(C)n(Cc3ccco3)c2C)CC1	-9	0.8
NC(=NCC1(Cc2ccc(F)cc2)CC1)N1CCOCC1	-1	0.15
Cc1cnccc1CN1CC2(CCCCC2)CC1=O	-10	2
CC(C)(C)CC(=O)Nc1nccnc1C(=O)NC1CCN(C(=O)c2ccc(F)cc2)CC1	-17	1.68
CC(C)c1nc2cc(C(=O)NCCc3nc(-c4ccccc4)no3)ccc2o1	5	-0.66

SMILES	% Inhibition [%]	Z score
CO[C@H]1COC[C@H]1Nc1nc(C(C)C)no1	-9	1.22
COc1ccc(-c2nccn2-c2ccc3nccnc3c2)cc1O	-6	0.8
COc1c2c(c(CNC(=O)CC(C)C)c3c1C(=O)N(C)CC3)OCO2	-4	0.49
COCc1nc(C)c(CNC(=O)c2cc(C)oc2C)s1	-29	3.08
C[C@H]1OCC(=O)N(Cc2ccccc2)[C@@H]1C(=O)NC1CCN(C2CCC2)C1=O (stereo partly drawn)	9	-1.51
CC(=O)N1CC(O)CC1c1nc(-c2cc(F)c(F)c(F)c2)no1 (stereo not drawn)	-18	1.96
Cc1cc(N2CCn3nc(CNc4ncccn4)cc3C2)ccn1	-21	2.34
Cc1cnn(CC2CCN(C(=O)c3ccc4c(c3)ncn4CCO)CC2)c1	2	-0.31
COCCN(Cc1ccc(C)o1)[C@H]1CCOC1	-4	0.66
O=C(NC1CCN(Cc2ccc(F)c(F)c2)CC1)N[C@H]1CCOc2ccccc21	10	-1.32
O=C(CC1CCCCC1)NCC1CCN(c2cc(-c3ccccn3)n[nH]2)CC1	2	-0.16
CC(=O)N1N=C2C(=Cc3ccc(Cl)cc3)CC(C)CC2C1c1ccc(Cl)cc1 (stereo not drawn)	-8	1.49
C#CCCC1(CCC(=O)N2Cc3ccccc3OC[C@@H]2C)N=N1	-13	1.65
COC(=O)C[C@@H](c1cn[nH]c1-c1ccccc1)c1c(O)n[nH]c1C	4	-0.53
O=C(CCn1cnc2c(-c3ccccc3)noc2c1=O)NC1CC1	-3	0.46
CCC(CC)C(=O)N1CC(=O)N2CC[C@@H](CC(=O)N3CCN(C)CC3)[C@@H](/C=C\COc3ccccc3C1)C2	11	-1.3
CN(C)C(=O)c1cccc(N2CC[C@](C)(O)[C@@H](O)C2)n1	-11	2
O=C(COc1ccc(Cl)c(Cl)c1)N1CC[C@@]2(CCCNC2=O)C1	12	-1.62
CC(C)Nc1ncc(CN2CC[C@H](c3ccnc(-c4ccc5c(c4)OCO5)c3)C2)cn1	-4	0.54
CC(C)c1nc(N2CCCC2=O)sc1C(=O)Nc1ccccc1	-10	0.95
COC(C(=O)Nc1nccc2cc(Br)ccc12)C1CCOC1 (stereo not drawn)	3	-0.35

SMILES	% Inhibition [%]	Z score
CCCN(Cc1cc(NC(=O)NC(C)(C)C)ccc1N(C)C)C(=O)C(C)C	-1	0.09
Cc1ncc(CN2CCC(NC(=O)c3cc[nH]n3)C(C)C2)s1 (stereo not drawn)	0	-0.04
COc1ccc(CCNC(=O)C2=C(C)NC(=O)N[C@H]2c2cccnc2)cc1	-12	2.42
COc1ccc(N2CCN(C(=O)[C@H]3CCC[C@H]3NC(=O)c3cnc(C)cn3)CC2)cc1	-15	2.37
O=C(NCc1cccs1)N1CCC[C@H]1c1ccncc1	-2	0.32
NC(=O)c1ccc2nc(CN3CC[C@@](O)(c4ccccc4)[C@H]4CCCC[C@H]43)cc(O)c2c1	1	-0.09
CCOC(C)(C)C(=O)NC[C@H]1CCN(C2CCCCC2)C1	-7	1.11
CC(C)c1cc(=O)[nH]c(-n2nc(C3CC3)cc2NC(=O)c2ccc(F)cc2)n1	90	-16.95
Cc1ccnc([C@@H](Nc2ncnc(C)c2C)C2CC2)c1	-1	0.15
Cc1ccc(C)c(-c2cncc(C(=O)NC3CCCCC3)c2)c1	-12	1.38
COc1cc(C(F)(F)F)ncc1NC(=O)NC1CCN(CC2CC2)CC1	-1	0.08
Cc1ccccc1[C@@H](NS(=O)(=O)Cc1ccon1)C(C)(C)C	-13	1.27
N#C[C@@H]1C(=O)N=C(N2CCN(c3ccccc3)CC2)NC12CCN(Cc1ccccc1)CC2	-6	0.92
Cc1nn(C)c(Cl)c1-c1c(-c2ccccc2)ncn1C[C@H]1CCCO1	9	-1.29
C#CCNC(=O)CNC(=O)c1ccccc1NC(=O)C(C)(C)C	-6	0.8
Cc1cc(=O)c(C(=O)NC[C@H](C)c2c(C)noc2C)c[nH]1	-4	0.58
Cc1cc(C(=O)N2CCOC[C@@H]2CC(=O)c2ccco2)ns1	3	-0.4
CC(C)(C)C1CCCC1Nc1nc(=O)c2cn[nH]c2[nH]1 (stereo not drawn)	-3	0.57
Cc1ccc2nonc2c1S(=O)(=O)NCc1cnn(C)c1	-10	1.49
CC(=O)NC1(c2noc(-c3cc(F)cc4ccoc34)n2)CCCCC1	-9	1.17
CCCc1nnc(N2C[C@@H](CN3C[C@@H](C)O[C@@H](C)C3)[C@@H](CO)C2)s1	-10	1.93

SMILES	% Inhibition [%]	Z score
Cc1cc(CN2CCCCC2C2CCCCC2O)nc(-c2ccc(Cl)cc2)n1 (stereo not drawn)	-12	1.84
C[C@H]1CN(S(=O)(=O)c2ccccc2)CN1C(=O)N1CCOCC1	9	-1.16
O=C(NCc1ccco1)c1ccncc1F	-7	1.32
O=C(O)[C@H]1CCCN(C(=O)Nc2ccc(-n3ncc4ccccc43)cc2)C1	-5	0.61
Cc1ccc(CCCC(=O)NC[C@H](O)CN2CCOCC2)cc1	-13	1.3
COCC(=O)N1CC[C@H](c2nnc(-c3ccc(C)cc3)o2)C1	0	0.02
CCN(Cc1ccccc1)c1ccc(NC(=O)c2ccc(C)cc2)cc1C(=O)O	-10	0.96
CC(C)c1nccc(CN2CCC(C(=O)O)(n3ccc(C(C)(C)C)n3)CC2)n1	-4	0.79
COc1ccc(N2CCN(C(=O)CN(C)c3ccccc3)CC2)cc1	-12	1.52
CCn1ncc(C#N)c1NS(=O)(=O)c1cc(C)c(Cl)s1	2	-0.4
N#Cc1cn[nH]c1NC(=O)C(=O)N1CCc2ccccc2C1	0	0
O=C(COc1ccc(Cl)cc1Cl)N1C[C@H]2CCCN[C@H]2C1	0	-0.03
NC(=O)[C@H]1CCCN1C(=O)c1ccc2nc(-c3ccc(F)cc3)cn2c1	-19	3.7
O=C(Nc1nnc(COc2ccccc2)o1)C1CCCC1	9	-1.19
COc1cccc(-c2ccnc3nc(Cc4cc(F)cc(F)c4)nn23)c1	6	-0.73
Cc1ccc(OCc2ccccc2)c(NC(=O)c2ccn(C)c(=O)c2)c1	-12	2.21
O=C(c1ccc(-n2cnnc2)nc1)N1C[C@H]2CC=CC[C@H]2C1	-9	0.91
O=C(NCc1nnc2ccccn12)c1ccc(Oc2ccccc2)cc1	4	-0.67
Cc1nc2c3c(F)cccc3nn2c(O)c1CCC(=O)NCCO	13	-1.53
Cc1nc(C(=O)NC2COC2)sc1C	-4	0.74
NC(=O)CCNC(=O)c1ccc2c(c1)n(CC1CC1)c(=O)n2C1CCCCC1	-8	1.19
